In all, about 33,000 sequences were measured (“E-score (-0.5 to 0.5)”: median about -0.012, highest 2% from about 0.29 on). Some of the results follow.
The sequences below were run against T1, Ybr033w (UniProt P38073) (assay: PBM E-score (8-mer binding enrichment) (E-score (-0.5 to 0.5)); higher = stronger / more preferred TF binding; most listed sequences are background and not binding sites). Conditions: protein concentration: 200 nM; construct: GST-full length.
T1 sequence: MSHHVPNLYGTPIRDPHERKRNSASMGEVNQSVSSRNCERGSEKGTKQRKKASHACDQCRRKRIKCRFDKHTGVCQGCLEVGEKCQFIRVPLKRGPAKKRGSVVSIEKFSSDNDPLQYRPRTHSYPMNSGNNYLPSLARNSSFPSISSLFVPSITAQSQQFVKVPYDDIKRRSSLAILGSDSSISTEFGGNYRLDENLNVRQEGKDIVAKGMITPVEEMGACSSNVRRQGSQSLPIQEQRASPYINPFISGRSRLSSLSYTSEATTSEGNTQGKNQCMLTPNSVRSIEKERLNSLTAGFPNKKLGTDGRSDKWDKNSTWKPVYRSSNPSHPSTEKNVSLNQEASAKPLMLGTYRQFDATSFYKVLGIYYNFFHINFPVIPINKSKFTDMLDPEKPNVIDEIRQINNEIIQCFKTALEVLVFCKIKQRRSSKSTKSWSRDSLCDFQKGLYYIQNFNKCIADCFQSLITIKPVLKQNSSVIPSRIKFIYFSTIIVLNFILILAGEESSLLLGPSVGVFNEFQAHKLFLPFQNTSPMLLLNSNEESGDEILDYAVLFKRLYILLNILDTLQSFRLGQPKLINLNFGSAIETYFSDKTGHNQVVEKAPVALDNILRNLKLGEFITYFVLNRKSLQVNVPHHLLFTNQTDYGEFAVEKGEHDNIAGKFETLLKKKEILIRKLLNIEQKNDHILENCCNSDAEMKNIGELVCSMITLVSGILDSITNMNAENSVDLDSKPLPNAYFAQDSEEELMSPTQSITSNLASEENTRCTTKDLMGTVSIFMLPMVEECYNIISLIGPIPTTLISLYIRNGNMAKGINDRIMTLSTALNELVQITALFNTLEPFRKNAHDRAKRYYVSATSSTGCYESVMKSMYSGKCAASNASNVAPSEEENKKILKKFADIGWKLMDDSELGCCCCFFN
Summary of the method: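 Full-length yeast transcription factors or their DNA-binding domains, GST-tagged and expressed with PURExpress, were applied at about 100-200 nM to universal all-10-mer Agilent arrays. These arrays had been made double-stranded by primer extension on fresh or once-stripped slides. Detection used fluorescent anti-GST, normalisation used masliner, and E-scores for ungapped eight-base words pooled with reverse complements came from the Universal PBM Analysis Suite.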

| Sequence | PBM E-score |
| --- | --- |
| AACATATC | 0.25 |
| GCTCGGGA | -0.109 |
| CGGGAGAC | -0.142 |
| GGCATGGA | 0.0291 |
| ATCCATTG | 0.137 |
| CTGAATGC | -0.0244 |
| AGCGCCAG | -0.147 |
| CCTGTCAA | -0.197 |
| ACTCAGGC | 0.0484 |
| GTTATGTA | -0.0248 |
| AGCACCCT | -0.199 |
| AAAAGTAT | 0.13 |
| AAGGAACC | 0.079 |
| ATTTGAGA | 0.0619 |
| ACGGCGTA | 0.0688 |
| GTGTTCTA | 0.226 |
| AGCAAGCT | -0.0641 |
| AGAAGTGC | -0.133 |
| AATCAACC | 0.113 |
| AACCTCGA | 0.0493 |
| CTAAGAGC | -0.245 |
| ACTCACCA | 0.0658 |
| ACGCTGAG | -0.223 |
| AAGACCCC | -0.184 |
| AAAATACC | 0.315 |

| Sequence | PBM E-score |
| --- | --- |
| CGAATCAC | -0.0744 |
| TAATGGAA | 0.184 |
| CTTTTCTA | 0.0222 |
| ACGATGAT | 0.155 |
| AGGTGGAT | -0.108 |
| ATCAGTTA | 0.22 |
| TAGACTGA | -0.0874 |
| CTTCTAAA | 0.144 |
| GTTCGGCA | 0.0546 |
| CGATCCAG | -0.0701 |
| CACTCCTA | 0.0521 |
| GGGTACTA | 0.0512 |
| AACGTTAG | 0.00362 |
| CGTGGCGA | -0.161 |
| ATAAAAAA | 0.164 |
| TCCGCACA | 0.0373 |
| CGGTTCAC | -0.285 |
| CTAAATTC | 0.204 |
| AAGCGGAT | -0.127 |
| AAGACGTA | 0.0539 |
| GACTAAGA | -0.0211 |
| ATGAGGTA | 0.0374 |
| GTGTCTGA | 0.0974 |
| GCAACATA | -0.00926 |
| AGTGGCGA | -0.142 |

| Sequence | PBM E-score |
| --- | --- |
| CGGAAGCC | -0.177 |
| GTGTCCTA | -0.06 |
| GCGAAGAA | -0.001 |
| ATTCCACG | -0.0625 |
| TGACACCA | -0.0123 |
| CGGCCTGC | -0.233 |
| TCGGGTAA | -0.0418 |
| GGCGGCAA | -0.159 |
| ATGGCCGA | -0.0861 |
| GCCTAAAC | -0.101 |
| GCGGAGAC | 0.0337 |
| AGCGCGTG | -0.129 |
| AGTAGTGC | -0.0503 |
| AACCGCGA | 0.123 |
| AGGGCGAC | -0.208 |
| GGGATGAC | -0.172 |
| CCAGCTGG | 0.0532 |
| TCACCGCA | -0.016 |
| GAACATAA | 0.192 |
| CGTCATAG | -0.082 |
| AAGCCGAC | -0.227 |
| AGGCCCAC | -0.303 |
| AACTTGGA | 0.11 |
| ACTTCCGA | -0.0181 |
| CCACCTCC | -0.184 |

| Sequence | PBM E-score |
| --- | --- |
| ACCGTCAA | -0.00416 |
| GAATACGC | -0.106 |
| CGTTCAGC | -0.176 |
| CCCCCGCG | -0.215 |
| CAGCAAAA | 0.144 |
| GCATTCGA | -0.195 |
| TCGTCTCA | -0.135 |
| CTCTTACC | 0.0116 |
| AAAGCTAC | 0.00605 |
| CACCAACG | -0.126 |
| CTCCTCTA | -0.165 |
| CTTGCCCA | -0.0497 |
| GACGGAAA | 0.227 |
| ACACGGGG | -0.173 |
| AGGAAACC | -0.0526 |
| AGTCAGTG | -0.098 |
| AGCAGCCT | -0.266 |
| AAATTTCG | 0.139 |
| GGGTAAAA | 0.168 |
| CCGTAAAA | 0.205 |
| CCGCGGAC | -0.223 |
| ATTGGCCC | -0.285 |
| CACCAGCG | -0.144 |
| AACTTAAA | 0.237 |
| ATACTACA | 0.256 |

| Sequence | PBM E-score |
| --- | --- |
| AATGAGAG | -0.108 |
| AACACTGT | 0.0195 |
| AACGTTTC | 0.0106 |
| CGCAGAAA | 0.0363 |
| GGTAGTGA | -0.0877 |
| GGACGACA | -0.00149 |
| CAGTAAAG | -0.00942 |
| GGTTTACA | 0.226 |
| AGCGGGGC | -0.268 |
| ACCATACG | 0.116 |
| AGCGAATG | -0.139 |
| AAGGCCTG | -0.231 |
| ATTAGCTG | 0.0588 |
| AGTAACGC | -0.0422 |
| AAACATGC | 0.0189 |
| CTCATGAG | 0.065 |
| GAACTAGC | 0.00293 |
| CCATAAGA | 0.0103 |
| GCTTCAGA | -0.158 |
| ATCCAAAA | 0.149 |
| ATCGAAAA | 0.238 |
| AACCTTCC | -0.158 |
| CTGAAATA | 0.188 |
| GCGTCACC | -0.265 |
| CAGAAACG | 0.0676 |

| Sequence | PBM E-score |
| --- | --- |
| TAATTACA | 0.248 |
| AAAGTTTA | 0.231 |
| GATGAAAC | 0.117 |
| CGGGCGCA | -0.179 |
| CAGTCGTA | -0.0311 |
| GGCCCCCC | -0.285 |
| GAAATAGA | 0.228 |
| GTCTCGCA | -0.0684 |
| GAAGTACC | 0.0554 |
| AGACCGTC | -0.227 |
| CCTCCGCG | -0.286 |
| AAAGTACC | 0.0487 |
| TATAGAAA | 0.238 |
| ATAGCCAC | -0.0322 |
| CCGATGTA | -0.0673 |
| CTTCTACC | -0.16 |
| ACATAGGC | 0.0136 |
| CTGCGGCC | -0.157 |
| CTGCGGGC | -0.214 |
| ACTATAGT | 0.267 |
| AATATCAG | 0.299 |
| GTTCGCAA | 0.0647 |
| CTTAAAAC | 0.226 |
| CGCTAGAC | -0.219 |
| CGCCGGCG | 0.11 |

| Sequence | PBM E-score |
| --- | --- |
| CATTAAAG | 0.147 |
| ACAACACC | -0.066 |
| AATCGGGT | 0.185 |
| AAAATGAG | 0.0599 |
| AATGACGG | 0.0823 |
| CACTGTGC | 0.0811 |
| CACAGGGG | -0.309 |
| ATCGCTAG | -0.0838 |
| GGGGAAGA | -0.0775 |
| TGCGAACA | 0.0792 |
| ACTCCAAA | 0.153 |
| CTTCCCTA | -0.0955 |
| ACCATCCC | -0.0578 |
| AGTTGCCA | -0.164 |
| CCTGTCGA | -0.0611 |
| CTGGTAAC | -0.0508 |
| AGCCGCTG | -0.164 |
| CACCTTCA | -0.0187 |
| ACCCGTGA | -0.206 |
| CTGCTAAC | 0.0163 |
| ACCACACC | -0.238 |
| GGGACCCC | -0.33 |

Source: the supplement of paper PMC3334620
